# Assay results published in the supplement of paper PMC3334620.
# Over roughly 33,000 sequences, “E-score (-0.5 to 0.5)” has its median near -0.041; the highest 2% begin near 0.37. Some of the results follow.
# Target: T1, Ecm22 (UniProt Q05958)
# T1 sequence: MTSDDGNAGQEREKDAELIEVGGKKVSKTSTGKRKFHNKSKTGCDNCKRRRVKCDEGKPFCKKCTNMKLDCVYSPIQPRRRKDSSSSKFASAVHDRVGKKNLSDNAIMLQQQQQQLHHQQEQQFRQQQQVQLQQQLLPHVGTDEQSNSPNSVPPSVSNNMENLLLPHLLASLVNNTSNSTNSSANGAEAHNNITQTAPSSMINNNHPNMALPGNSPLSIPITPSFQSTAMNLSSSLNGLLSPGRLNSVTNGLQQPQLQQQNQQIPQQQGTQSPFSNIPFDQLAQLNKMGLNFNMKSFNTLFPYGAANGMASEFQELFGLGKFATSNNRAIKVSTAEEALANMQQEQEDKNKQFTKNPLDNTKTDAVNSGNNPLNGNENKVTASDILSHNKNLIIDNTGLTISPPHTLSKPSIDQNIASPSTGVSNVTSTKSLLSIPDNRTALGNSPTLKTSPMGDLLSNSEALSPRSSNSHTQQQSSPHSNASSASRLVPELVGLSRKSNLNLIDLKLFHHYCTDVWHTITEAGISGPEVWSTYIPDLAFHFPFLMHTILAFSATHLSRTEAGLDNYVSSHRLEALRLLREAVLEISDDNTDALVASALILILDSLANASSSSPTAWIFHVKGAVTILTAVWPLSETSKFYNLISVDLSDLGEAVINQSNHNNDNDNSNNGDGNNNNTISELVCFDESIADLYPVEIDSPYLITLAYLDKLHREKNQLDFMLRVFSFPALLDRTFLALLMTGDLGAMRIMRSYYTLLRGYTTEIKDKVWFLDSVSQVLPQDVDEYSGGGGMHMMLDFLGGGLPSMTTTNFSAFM
# Experiment: PBM E-score (8-mer binding enrichment) (E-score (-0.5 to 0.5)); higher = stronger / more preferred TF binding; most listed sequences are background and not binding sites
# Conditions: protein concentration: 200 nM; construct: GST-full length
# In short: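 Universal all-10-mer Agilent arrays, fresh or stripped once, were converted to double-stranded form by primer extension. GST-tagged yeast transcription factors from PURExpress in vitro transcription/translation, full-length or DNA-binding domain only, were applied at about 100-200 nM and detected with fluorescent anti-GST. After masliner normalisation, the Universal PBM Analysis Suite scored each ungapped eight-base word together with its reverse complement by E-score.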
row,Sequence,PBM E-score
1,ATTAAGCC,-0.0618
2,CTCTGAAA,-0.223
3,ATCTCCCG,-0.0893
4,CGTTAGTC,0.0681
5,ACTAGGAA,-0.246
6,ATCGAATC,-0.0353
7,GCAAATGC,-0.24
8,CCGCCGAC,-0.0824
9,AATTAGGT,-0.09
10,CGGACGTA,0.205
11,AATTATGC,0.0879
12,GCCTCAGC,-0.233
13,CATCTATA,0.0724
14,CCGCCCGG,0.00167
15,GAGCAGTA,-0.00126
16,AATGATCA,-0.0568
17,GCATTCGC,0.164
18,CTCGTGTC,0.314
19,CTACTTTA,-0.0575
20,TGAGTCAA,-0.067
21,AGCCAGCA,-0.308
22,AACGGTAC,0.328
23,CTCTAAGA,-0.202
24,GACTCAAA,0.0153
25,AACGCTCA,0.0883

row,Sequence,PBM E-score
1,CCTGCCCC,-0.142
2,CCACTTAG,-0.128
3,CTATTATC,0.125
4,CAAACACC,-0.00172
5,ATTCCGGC,-0.227
6,CAATCTGC,-0.146
7,GATGAGTA,-0.0391
8,CAGCGTCC,-0.0894
9,CAAAACCA,-0.0331
10,GAATCTTA,0.0749
11,ATAAGTGC,-0.13
12,AAAACCTG,0.00105
13,GATTCACA,-0.0511
14,GTCTCAAA,-0.0696
15,GTGGCTGA,-0.228
16,GTAGGGAA,0.0223
17,GTCTTACA,-0.135
18,ACAGCTTC,0.0681
19,CGGGATGA,0.00392
20,CAGTTTAG,-0.0933
21,CAAACCTC,-0.234
22,CCCTCGTC,0.119
23,CGTCCTGA,-0.174
24,CTCAAAAC,-0.0415
25,CCATCACG,0.00086

row,Sequence,PBM E-score
1,ACACGACC,0.186
2,GTAGTGCA,-0.136
3,AGACTTGG,-0.225
4,CTGCTCAC,-0.0919
5,CTGTCAAC,0.0474
6,GAACTGTA,0.0211
7,GGCATCAA,-0.237
8,CAAATAGG,-0.0548
9,ACCTGCGA,0.07
10,CCGGCCTC,-0.0596
11,CATCTCGA,-0.0798
12,GCCGGTAA,-0.0142
13,ATAGTTCC,-0.0217
14,AACTAACT,-0.0882
15,CAAATTCG,0.136
16,GCAGAACC,-0.0493
17,TCAAAAGA,-0.147
18,ACCAACGC,-0.0181
19,AGGATAAA,-0.125
20,AATTCGCG,0.201
21,AGGAAACA,0.0582
22,ATTGTTAG,-0.11
23,GTATTCTA,0.0983
24,CTGATGGC,-0.152
25,AATTTGTA,0.138

row,Sequence,PBM E-score
1,TAGCTCGA,-0.0421
2,CCTTCTGC,-0.243
3,GACGACCA,0.097
4,AATCAGCA,-0.116
5,ACAACATA,0.0339
6,ATACGGAG,0.385
7,ATTTCGAG,-0.016
8,CGTAGTAG,0.109
9,AATAGCAA,0.0594
10,CGTAGCGC,0.273
11,GAATCGCA,-0.0229
12,GCTTCTTA,-0.0116
13,ATGCGTTA,0.167
14,AAAAGCAA,-0.0638
15,ATTGGTAG,-0.145
16,ATCCCGAC,0.0577
17,GGTAAGTA,0.00832
18,GCCGTAGA,0.213
19,ACCGATAC,0.342
20,ACAAGACA,0.0576
21,AGGGGCAG,-0.261
22,ATGCCTAC,-0.201
23,GTTTGTCA,0.04
24,AGAATTAG,-0.0877
25,CCTGACTA,-0.143

row,Sequence,PBM E-score
1,TGAAGCAA,-0.206
2,ATAATCTC,0.0283
3,GGTCTTTA,-0.0988
4,ATGCGAAC,0.278
5,ATCGTTAG,0.201
6,AATCGAGA,0.101
7,CCGCGCTC,0.0324
8,AACCTGCT,0.0663
9,CATTTACG,0.292
10,GAACTCGA,-0.128
11,AGAAAAGA,-0.0437
12,CACCAATG,-0.115
13,AGAGTCGG,0.0823
14,TCTACGCA,0.041
15,AAAAATCT,0.15
16,TCTAAGCA,-0.321
17,AATAGTGG,-0.102
18,GGATGTGA,-0.253
19,GCAACCGA,0.141
20,AACGAGGA,0.449
21,GAACCCGC,0.0274
22,CGGTCGGC,0.229
23,AGAGTTAA,-0.111
24,GGAATTCC,-0.244
25,AACTTGCC,-0.085

row,Sequence,PBM E-score
1,AACCCGTG,-0.11
2,CGAAGTTC,0.11
3,AAGTCACG,-0.166
4,ATAATCCC,-0.0249
5,ATAACCAA,-0.131
6,CAAAATCC,0.0583
7,AGCCACAA,-0.114
8,GAAGACAC,0.197
9,CCGATGGA,0.0874
10,CGTTTAAA,0.453
11,AGTTTAGC,-0.19
12,CAGTTTAC,0.069
13,AATGCACG,0.0842
14,GACCTCGC,0.243
15,ACGTACAT,0.233
16,ATTGGTGG,-0.181
17,GTCATAGA,-0.115
18,CCGTGAAG,-0.139
19,CTTTCTGC,-0.0383
20,GTTCTTAA,-0.0482
21,CATCGGTA,-0.0221
22,CTTAATCC,-0.255
23,GGGGTGAA,-0.304
24,GCAGTCCC,-0.272
25,AATTGGAC,-0.153

row,Sequence,PBM E-score
1,CCATGCGC,-0.166
2,AGGACCCA,-0.28
3,GGCTACGA,0.424
4,ACGCAGTC,0.0272
5,CATCATCC,-0.0318
6,AATGTACA,0.162
7,CCTAGTAA,-0.341
8,AACTATAG,-0.195
9,GGTGCACC,-0.207
10,CAGAATCA,0.00782
11,CTCGACCA,-0.0786
12,GCCGAATA,0.218
13,GCACTTAA,0.0583
14,AAACGGAT,0.33
15,ACCTGACT,0.0283
16,ATTGCTCG,0.123
17,CTTTCAAA,0.0357
18,CCGTCTAC,0.0314
19,CACGCCTC,-0.0418
20,CCGAGGCA,0.0444
21,AAGACAGG,0.0458
22,ACCTCGAT,0.0952
23,GAGAGTCC,-0.0455
24,CTTTATGA,-0.231
25,CCGCGAAG,-0.0264

row,Sequence,PBM E-score
1,AATTGTAG,0.0301
2,AAAAGCGG,-0.168
3,CGACGCCA,0.0866
4,AGTGTCCA,-0.0514
5,AGAACTGC,0.0657
6,AGATCACG,0.0249
7,GACAGTTA,-0.0114
8,TCCGCGAA,0.0484
9,AAATAAAG,-0.0876
10,ATCACGAA,0.109
11,TCACTAAA,0.0449
12,CGACTAAA,-0.0294
13,AGCACAGG,-0.12
14,AGTAGGTC,0.168
15,CCAGGTGC,-0.119
16,AGGTCCCA,-0.188
17,CGGGGGAA,-0.141
18,AGTAGGAA,-0.104
19,CCGGTCCA,-0.31
20,AGCTTAGG,-0.31
21,CAGGTCCG,0.0456
22,ACCTAGAC,-0.0874
23,CTAGTTCC,0.156
24,CTCCAAAC,-0.0257
25,CTCACCTA,-0.205

row,Sequence,PBM E-score
1,CACGTTTA,0.256
2,GGTGTGCA,-0.262
3,TACTCCTA,-0.182
4,GTGAACCA,-0.0791
5,GTGCCAGA,-0.169
6,CGGTATAC,0.259
7,GGTATGCA,-0.0053
8,CGCTTGGA,-0.0885
9,CAGTATGC,-0.15
10,TATCTCGA,-0.0267
11,AGTGTAAA,-0.0627
12,GCCTCACC,-0.149
13,GGCTCGAC,-0.231
14,AGAGGCCT,-0.0513
15,ATCGATGG,0.00668
16,AAGGTTGC,-0.355
17,AAATCTAA,-0.156
18,AGTTTTGA,-0.129
19,GCAGCAAA,-0.0527
